Source: PMC10496494 (2023)

Target: T1, DDX24^WT (human wildtype DDX24, residues 28 to 859), purified recombinant (human, UniProt Q9GZR7 28-859)
T1 chain: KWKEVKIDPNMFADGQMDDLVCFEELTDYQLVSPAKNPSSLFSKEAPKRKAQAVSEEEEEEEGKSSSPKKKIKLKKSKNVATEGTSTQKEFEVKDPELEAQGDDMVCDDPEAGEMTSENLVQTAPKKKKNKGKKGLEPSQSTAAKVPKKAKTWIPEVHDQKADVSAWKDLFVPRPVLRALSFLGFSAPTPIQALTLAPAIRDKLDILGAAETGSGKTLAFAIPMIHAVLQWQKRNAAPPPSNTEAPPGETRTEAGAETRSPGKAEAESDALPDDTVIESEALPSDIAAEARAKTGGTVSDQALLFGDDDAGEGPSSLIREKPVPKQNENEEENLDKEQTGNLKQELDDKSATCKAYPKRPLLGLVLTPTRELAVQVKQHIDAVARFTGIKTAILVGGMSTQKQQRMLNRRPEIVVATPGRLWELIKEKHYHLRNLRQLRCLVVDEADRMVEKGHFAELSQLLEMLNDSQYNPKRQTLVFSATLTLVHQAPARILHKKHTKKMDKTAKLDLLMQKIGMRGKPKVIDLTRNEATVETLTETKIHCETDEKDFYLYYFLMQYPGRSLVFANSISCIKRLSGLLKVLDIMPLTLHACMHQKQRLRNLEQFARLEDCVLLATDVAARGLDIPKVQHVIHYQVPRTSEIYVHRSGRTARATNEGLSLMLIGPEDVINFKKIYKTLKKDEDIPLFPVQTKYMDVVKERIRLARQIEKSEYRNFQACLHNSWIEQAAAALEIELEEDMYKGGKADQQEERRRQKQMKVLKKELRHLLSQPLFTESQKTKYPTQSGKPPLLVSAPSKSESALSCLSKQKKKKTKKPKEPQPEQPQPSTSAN
Assay: SPR; DDX24^WT immobilised, NPM1 as analyte

B1: NPM1 (human wildtype nucleophosmin, […]), purified recombinant (domain or fragment)
chain: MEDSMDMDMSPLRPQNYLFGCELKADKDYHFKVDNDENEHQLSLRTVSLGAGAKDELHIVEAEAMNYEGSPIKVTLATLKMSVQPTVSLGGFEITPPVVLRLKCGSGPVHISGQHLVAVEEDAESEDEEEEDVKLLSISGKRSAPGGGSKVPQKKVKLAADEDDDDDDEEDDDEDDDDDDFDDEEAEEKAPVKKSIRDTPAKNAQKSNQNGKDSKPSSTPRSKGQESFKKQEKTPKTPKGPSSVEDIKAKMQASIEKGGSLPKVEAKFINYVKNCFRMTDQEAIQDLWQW
Kd: 1.2 nM
